According to the supplement of paper PMC4604168 (melanoma cell lines):
Some of the results follow. Single values are uncertain, as repeats are few or missing.
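Note: cell number obtained by counting DAPI-stained nuclei in high-throughput microscope images with image analysis software, screen run in 1,536-well plates.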

What follows are molecules tested on MEL-HO (assay: cell count relative to DMSO control; melanoma cells; higher = more viable cells). Conditions: library dose: low library concentration; 72 h.
COc1ccc(COc2ccc(Cc3cnc(N)nc3N)cc2OC)cc1 + Cc1cc(SCc2sc(-c3ccc(C(F)(F)F)c(F)c3)nc2C)ccc1OCC(=O)O [GW0742] (first compound 1 µM, partner dose 2 µM) gave a cell count of 98.1%. For Clc1ccc(Nc2nnc(Cc3ccncc3)c3ccccc23)cc1 [vatalanib] + C[As](C)SC[C@H](NC(=O)CC[C@H](N)C(=O)O)C(=O)NCC(=O)O [Darinaparsin] (first compound 2 µM, partner dose 0.4 µM), the cell count was 83%. For COc1ccc(COc2ccc(Cc3cnc(N)nc3N)cc2OC)cc1 + C/C(O)=C(\C#N)C(=O)Nc1cc(Br)ccc1Br [LFM-A13] (first compound 1 µM, partner dose 2 µM), the cell count was 96.5%. COCC[n+]1c2c(n(Cc3cnccn3)c1C)C(=O)c1ccccc1C2=O + Cc1cc(SCc2sc(-c3ccc(C(F)(F)F)c(F)c3)nc2C)ccc1OCC(=O)O [GW0742] (first compound 0.0004 µM, partner dose 2 µM) gave a cell count of 90.7%. O=C(CCCCCCC(=O)Nc1ccccc1)NO [vorinostat] + Cc1cc(SCc2sc(-c3ccc(C(F)(F)F)c(F)c3)nc2C)ccc1OCC(=O)O [GW0742] (first compound 0.08 µM, partner dose 2 µM) gave a cell count of 106%. Cc1cc(Nc2cc(N3CCN(C)CC3)nc(Sc3ccc(NC(=O)C4CC4)cc3)n2)n[nH]1 [Tozasertib] + C[C@]12O[C@H](C[C@]1(O)CO)n1c3ccccc3c3c4c(c5c6ccccc6n2c5c31)CNC4=O [Lestaurtinib] (first compound 0.006 µM, partner dose 0.004 µM) was tested, and the cell count was 107%. O=C(O)c1ccc2c(c1)nc(Nc1cccc(Cl)c1)c1ccncc12 + C[As](C)SC[C@H](NC(=O)CC[C@H](N)C(=O)O)C(=O)NCC(=O)O [Darinaparsin] (first compound 0.4 µM, partner dose 0.4 µM) gave a cell count of 86.2%. For Cn1c(Nc2ccc(C(F)(F)F)cc2)nc2cc(Oc3ccnc(-c4ncc(C(F)(F)F)[nH]4)c3)ccc21 + Cc1cc(SCc2sc(-c3ccc(C(F)(F)F)c(F)c3)nc2C)ccc1OCC(=O)O [GW0742] (first compound 0.08 µM, partner dose 2 µM), the cell count was 90.8%. For C#Cc1cccc(Nc2ncnc3cc(OCCOC)c(OCCOC)cc23)c1 [erlotinib] + O=C(Oc1ccc([N+](=O)[O-])cc1)N1CCC(C(O)(c2ccc3c(c2)OCO3)c2ccc3c(c2)OCO3)CC1 [JZL184] (first compound 0.8 µM, partner dose 1 µM), the cell count was 93.1%. Cc1cc(Nc2cc(N3CCN(C)CC3)nc(Sc3ccc(NC(=O)C4CC4)cc3)n2)n[nH]1 [Tozasertib] + Cn1cc(C2=C(c3cn(C4CCN(Cc5ccccn5)CC4)c4ccccc34)C(=O)NC2=O)c2ccccc21 [Enzastaurin] (first compound 0.006 µM, partner dose 0.8 µM) gave a cell count of 93.7%. With O=C(CCCCCCC(=O)Nc1ccccc1)NO [vorinostat] + C/C(O)=C(\C#N)C(=O)Nc1cc(Br)ccc1Br [LFM-A13] (first compound 0.08 µM, partner dose 2 µM) the cell count was 96.5%. Molecule Oc1cc(-c2nc(-c3ccccc3)[nH]c2-c2ccncc2)ccc1Cl + C/C(O)=C(\C#N)C(=O)Nc1cc(Br)ccc1Br [LFM-A13] (first compound 0.2 µM, partner dose 2 µM) has a cell count of 80.9%. c1cc(-c2cnn3cc(-c4ccc(OCCN5CCCCC5)cc4)cnc23)ccn1 [Dorsomorphin] + O=C(Oc1ccc([N+](=O)[O-])cc1)N1CCC(C(O)(c2ccc3c(c2)OCO3)c2ccc3c(c2)OCO3)CC1 [JZL184] (first compound 0.4 µM, partner dose 1 µM) showed a cell count of 92.9%. In the case of CN1CCN(c2ccc3nc(-c4c(N)c5c(F)cccc5[nH]c4=O)[nH]c3c2)CC1 [Dovitinib] + C[As](C)SC[C@H](NC(=O)CC[C@H](N)C(=O)O)C(=O)NCC(=O)O [Darinaparsin] (first compound 0.1 µM, partner dose 0.4 µM), the cell count is reported as 89.3%. In the case of Cc1cc(Nc2cc(N3CCN(C)CC3)nc(Sc3ccc(NC(=O)C4CC4)cc3)n2)n[nH]1 [Tozasertib] + C[As](C)SC[C@H](NC(=O)CC[C@H](N)C(=O)O)C(=O)NCC(=O)O [Darinaparsin] (first compound 0.006 µM, partner dose 0.4 µM), the cell count is reported as 89.5%.
